Experimental data published in the RNAGym collection of RNA variant scans (doi:10.7554/elife.90254).
Read counts are not given, so values of variants with three or more changes are uncertain.

B1: LINE1-full (parent)
chain: UACGUAGGUGGUUUUCCCCUGAUAGUGCUAAGGGGGCCUGGAAGUUUGGACUGGGCAGAGCUCAACACAGCGUGGCAAAGUGGCUGUGGCUAGACUGCCUCUCUGGAUUCCUCGUCACUCAGCAGGGCAUCUCUGAGAGAAAUGCC

Variants of: B1
Assay: self-cleavage, relative activity (ratio to wild type); higher = more cleavage; in vitro, sequencing; the parent is a self-cleaving ribozyme

Variant	self-cleavage
U62A U87A U132C	0.02
A2G G10U A142G	0.55
U47C A64U U100C A107U U119C A124U	1.05
G34A U91C A129C	1.23
U14G A31U A59C A117U	0.46
A57U G106U U119A	0.11
U13C G106A A140G	1.62
A6U A65G A92G U100A A138U	0.27
C18A C95U U143C	0.15
G7A U46C A142G	1.51
G27A G72C U112A A142G	1.48
C19U G33U A67G	0.29
C18A A92G U134G	0
A2G U15A U81A U87A A142U	0.21
U20A U23C A24G A30G G55C A78U	1.77
C3U A79U U85C U143C	0.13
U14G U130A C131G	0
U1C U47C A142G	0.96
A43G A59G G82A A142G	0.08
U45A A64G U102C	0.44
U20C C76U G82C	1.51

Variant	self-cleavage
U1C A6G U26A U132C	1.05
A24G U52C U87C	1.38
A77G U108A A136G	0.92
U9C A124U A138G	1.33
A30U U85A A136G	0.24
A59G U130C U143A	0.11
U47C A64G A65G C84U C128U	0.03
U9C U39A U73C A117G	0
A22G A94G U119C	0.54
U15A U23C U130C	1.36
U5A G32A U91C U130A	0.45
U39A A78G U81C A138G	1.35
G34A G54U A67G U134C	0.28
G8C A24G U29G	0.99
U1C U100A A107G	0.9
C28G U46A A67U	0.23
U45C U62C U87A	0.14
U20A C95U U108A U130C	0.25
U47C U91A U132A	1.15
G7U A42G U100C U130C	2.4
U20C A22G U47A A129G	0.41

Variant	self-cleavage
U5C A77U A78G	0.92
A57U A77G U100A	0
U9C U13A A50G A92G	0
A22G G32A U130G	1.39
G93A A140G U143C	0.07
A42U A94G A140G	0.05
U14C A42G U46A	1.31
G27U A42G A78U A79G	2.33
U12C A65G U104A U130C	0.46
U73C U96C A117G	0
U20C U47A U62C A138G U143C	0.23
U1C U87A G127A	0.04
C37U A69U U115C A141U	0.02
U15C C37U C51U U96A	0.07
U81C U108A U143C	0.92
A22G G126A A140G	1.18
C38U U39G U62C A124G	0.11
A64G A79U A124G A138U A140G	0
A65G A117U A121G	0
U9A A57G U109C U130C	1.15
U26C U130C U132C A142G	2.16

Variant	self-cleavage
C38U A42G A43G	1.1
U9C G58A C113A U130C U143C	0.09
A43G G89U U100C	0.07
G74U A136G A141G	1.5
A2G C84U U119C U134C	0.67
A6U U39C C68U A92U	0.12
A2G U39C A141C	0.95
U20C U46A U47A	1.46
G34U A65G G72U U73C	0.03
U9A U12C A43G A64U	0.51
U26C A57G U96C	1.53
U91A U100A A117G	0.62
U46C U62C U100C	0.17
A24G A77G A94U A142G	0.97
C17G A78G U132C	1.48
U9C A43G A59G A121U U134C	0
G25A A30G U115C	0
U46C C76A A117G	1.94
U9C G72A A78U	1.86
A24U G41A A69U U96C U102A	0.06
A22U C84U U130C A136G	0.16
